Measured values published in patent US5792444A, “Labeled chemotactic peptides to image focal sites of infection or inflammation” (The General Hospital Corporation, priority 1993, dated 1998).
Where two headings read alike, the source gives them in different places. Part of at least one peptide drawing is inferred or uncertain, most often the ends. *1 amine or outer side, *2 acyl side, *3 side chain or, on linkers, in order; H or OH if unused. Where a SMILES comes first, the peptide text is derived from it. [ ]: non-standard residue; d: D form. The star is where a group is joined. ξ: configuration not given here. X2 = CC(C)(C)OC(=O)NNc1ccc(C(=O)*)cn1; Met(O2) = CS(=O)(=O)CC[C@H](N)C(=O)O; Met(O) = CS(=O)CC[C@H](N)C(=O)O; HYNIC = NNc1ccc(C(=O)*)cn1; Nle = CCCC[C@H](N)C(=O)O; Ac5c = NC1(C(=O)O)CCCC1; X1 = O=C(C=Cc1ccccc1)*; Boc = CC(C)(C)OC(=O)*; NHcHex = C1CCC(N*)CC1; CO = O=C([*:1])[*:2]; ξThz = O=C(O)C1CSCN1; NHiPr = CC(C)N*; NHBu = CCCCN*; For = O=C*

Legend:
[1] = system: neutrophils / human umbilical vein endothelial cells; assay type: cell-based; details: read-out: Adhesion Antagonist IC50
Description: (§1) The unconjugated peptide iBoc-MLFK was evaluated in a neutrophil-endothelial cell adhesion assay. In this assay, neutrophils (5×10^5) labeled with 5-carboxyfluorescein diacetate were added into wells of a 48 well dish containing confluent human umbilical vein endothelial cells. The iBoc-MLFK peptide was added at a concentration of 10 μM 10 min prior to stimulation of neutrophils with 30 nM ForMLF. Percent adhesion was determined by washing off unattached neutrophils after an incubation period of 25 minutes. This peptide inhibited adhesion by 66% at this concentration. Subsequently, concentrations between 0.1-3.0 μM were examined. […] Inhibition of adhesion would reduce the infiltration of leukocytes, such as neutrophils, to a diseased site, thereby limiting the tissue damage associated with inflammation.
(§2) The procedure of Example 5 was repeated for additional CP's within the scope of the present invention. The results are shown in Table I. In the table, MPO is myeloperoxidase assay, a "-" sign means there was no effect at 30 μM, a "+" sign means there was a positive effect at 30 μM, and "N.T." means "Not

[2] = system: neutrophils / human umbilical vein endothelial cells; experiment: Adhesion agonist (neutrophil-endothelial cell adhesion assay); assay type: cell-based
Description: as §1, §2

| Structure (SMILES) | IC50 [1] | EC50 ([2]; class symbol) | EC50 [2] |
| --- | --- | --- | --- |
| CSCC[C@H](NS(C)(=O)=O)C(=O)N[C@@H](CC(C)C)C(=O)N[C@@H](Cc1ccccc1)C(=O)O [Example 80, mesyl-MLF] | > 100 µM | > 30 µM | – |
| CSCC[C@H](NC(=O)OCC(C)C)C(=O)N[C@@H](CC(C)C)C(=O)N[C@@H](Cc1ccccc1)C(=O)O [Example 54, iBoc--MLF--OH] | 6.3 µM | > 30 µM | – |
| CC(C)C[C@H](NC(=O)[C@H](CC[S+](C)[O-])NC=O)C(=O)N[C@@H](Cc1ccccc1)C(=O)N[C@@H](CCCCN)C(N)=O (some centres unmarked) [Example 46, For--M(O)--LFK] (For-[Met(O)]LFK-NH2) | – | – | 2 µM |
| CSCC[C@H](NC(=O)OC(C)(C)C)C(=O)NC1(C(=O)N[C@@H](Cc2ccccc2)C(=O)O)CCCC1 [Example 17, tBoc--MAc(5)cF] (Boc-Met-[Ac5c]-Phe-OH) | 6.5 µM | – | – |
| CSCC[C@H](NC(=O)OC(C)(C)C)C(=O)N[C@@H](CC(C)C)C(=O)N[C@@H](Cc1ccccc1)C(=O)O [Example 56, tBoc--MLF] | 3.9 µM | – | – |
| CSCC[C@H](NC(=O)C1CSCN1)C(=O)N[C@@H](CC(C)C)C(=O)N[C@@H](Cc1ccccc1)C(=O)O (some centres unmarked) [Example 91, 4-carboxy-thiazoidine-MLF] (H-[ξThz]MLF-OH) | > 30 µM | – | – |
| CSCC[C@H](NC(=O)OCC1c2ccccc2-c2ccccc21)C(=O)N[C@@H](CC(C)C)C(=O)N[C@@H](Cc1ccccc1)C(=O)O [Example 15, FMOC--MLF] | 25.8 µM | – | – |
| CC(C)C[C@H](NC(=O)[C@H](Cc1ccccc1)NC(=O)[C@H](CC(C)C)NC(=O)[C@H](Cc1ccccc1)NC(=O)NC(C)C)C(=O)N[C@@H](Cc1ccccc1)C(=O)O [Example 72, isopropylurea-FLFLF] ({NHiPr-CO}-FLFLF-OH) | – | > 30 µM | – |
| CSCC[C@H](NC(=O)c1ccco1)C(=O)N[C@@H](CC(C)C)C(=O)N[C@@H](Cc1ccccc1)C(=O)O [Example 21, Furoic-MLF] | 7.4 µM | – | – |
| CSCC[C@H](NC(=O)NCc1ccccc1)C(=O)N[C@@H](CC(C)C)C(=O)N[C@@H](Cc1ccccc1)C(=O)O [Example 77, N-benzylurea-MLF] | 12.6 µM | > 30 µM | – |
| CSCC[C@H](NC(=O)NC1CCCCC1)C(=O)N[C@@H](CC(C)C)C(=O)N[C@@H](Cc1ccccc1)C(=O)N[C@@H](CCCCNC(=O)c1ccc(NN)nc1)C(=O)O [Example 35, Cyclohexylurea-MLF--Lys--SHNH] ({NHcHex-CO}-MLFK(HYNIC)-OH) | – | – | 2.2 µM |
| COc1ccc(CNC(=O)N[C@@H](CCSC)C(=O)N[C@@H](CC(C)C)C(=O)N[C@@H](Cc2ccccc2)C(=O)O)cc1 [Example 86, P-methoxy-benzylurea-MLF] | – | < 30 µM | – |
| CNC(=O)N[C@@H](CCSC)C(=O)N[C@@H](CC(C)C)C(=O)N[C@@H](Cc1ccccc1)C(=O)O [Example 63, N-methylurea-MLF] | 6.3 µM | > 30 µM | – |
| CSCC[C@H](NC(=O)NC(C)C)C(=O)NC1(C(=O)N[C@@H](Cc2ccccc2)C(=O)O)CCCC1 [Example 22, Isopropylurea M-Ac5c-F] ({NHiPr-CO}-Met-[Ac5c]-Phe-OH) | 20.2 µM | – | – |
| CSCC[C@H](NC(=S)Nc1ccccc1)C(=O)N[C@@H](CC(C)C)C(=O)N[C@@H](Cc1ccccc1)C(=O)O [Example 14, Phenyl-thiourea-MLF] | 5.1 µM | – | – |
| CC(C)C[C@H](NC(=O)[C@H](Cc1ccccc1)NC(=O)[C@H](CC(C)C)NC(=O)[C@H](Cc1ccccc1)NC(=O)C=Cc1ccccc1)C(=O)N[C@@H](Cc1ccccc1)C(=O)O [Example 95, N-cinnamoyl-FLFLF] (X1-FLFLF-OH) | 1.5 µM | – | – |
| CSCC[C@H](NC(=O)NS(=O)(=O)c1ccccc1)C(=O)N[C@@H](CC(C)C)C(=O)N[C@@H](Cc1ccccc1)C(=O)O [Example 89, N(N-phenylsulfonylurea)-MLF] | > 100 µM | – | – |

| Structure (SMILES) | IC50 [1] | EC50 ([2]; class symbol) | EC50 [2] |
| --- | --- | --- | --- |
| CC(C)C[C@H](NC(=O)[C@H](CCS(C)(=O)=O)NC=O)C(=O)N[C@@H](Cc1ccccc1)C(=O)N[C@@H](CCCCN)C(N)=O [Example 45, For--M(02)--LFK] (For-[Met(O2)]LFK-NH2) | – | – | 0.6 µM |
| C=CCNC(=O)N[C@@H](CCSC)C(=O)N[C@@H](CC(C)C)C(=O)N[C@@H](Cc1ccccc1)C(=O)O [Example 96, N--N-allylurea-MLF] | – | – | 0.064 µM |
| CSCC[C@H](NC(=O)C1CSC(=S)N1)C(=O)N[C@@H](CC(C)C)C(=O)N[C@@H](Cc1ccccc1)C(=O)O (some centres unmarked) [Example 92, 4-carboxy-2-thioxo--thiazolidine-MLF] | – | < 30 µM | – |
| CSCC[C@H](NC=O)C(=O)N[C@@H](CC(C)C)C(=O)N[C@@H](Cc1ccccc1)C(=O)N[C@@H](CCCCN)C(=O)O [Example 60, ForMLFK] (For-MLFK-OH) | – | – | 0.014 µM |
| CCCCNC(=O)N[C@@H](CCSC)C(=O)N[C@@H](CC(C)C)C(=O)N[C@@H](Cc1ccccc1)C(=O)N[C@@H](CCCCNC(=O)c1ccc(NN)nc1)C(=O)O [Example 27, N-butlyurea-MLF--Lys--SHNH] ({NHBu-CO}-MLFK(HYNIC)-OH) | – | – | 0.039 µM |
| CSCC[C@H](NC(=O)NCC(C)C)C(=O)N[C@@H](CC(C)C)C(=O)N[C@@H](Cc1ccccc1)C(=O)O [Example 66, i-butylurea-MLF] | 21.5 µM | – | – |
| CC(C)C[C@H](NC(=O)[C@H](Cc1ccccc1)NC(=O)NC(C)C)C(=O)N[C@@H](Cc1ccccc1)C(=O)O [Example 10, N(N-isopropylurea)-FLF] ({NHiPr-CO}-Phe-Leu-Phe-OH) | 6.7 µM | – | – |
| CCCNC(=S)N[C@@H](CCSC)C(=O)N[C@@H](CC(C)C)C(=O)N[C@@H](Cc1ccccc1)C(=O)O [Example 13, N-propyl-thiourea-MLF] | 12.6 µM | – | – |
| CSCC[C@H](NC(=O)NC(C)C)C(=O)N[C@@H](CC(C)C)C(=O)N[C@@H](Cc1ccccc1)C(=O)O [Example 71, isopropylurea-MLF] | 15.4 µM | – | – |
| C=COC(=O)N[C@@H](CCSC)C(=O)N[C@@H](CC(C)C)C(=O)N[C@@H](Cc1ccccc1)C(=O)O [Example 12, N(vinyl carbamate)-MLF] | – | – | 0.006 µM |
| CSCC[C@H](NC(=O)NC(C)C)C(=O)N[C@@H](CC(C)C)C(=O)N[C@@H](Cc1ccccc1)C(=O)N[C@@H](CCCCNC(=O)c1ccc(NNC(=O)OC(C)(C)C)nc1)C(=O)O [Example 32, i-propylurea-MLF--Lys--SHNH--Boc] ({NHiPr-CO}-MLFK(X2)-OH) | – | – | 0.013 µM |
| CSCC[C@H](NC(=O)c1cccc2ccccc12)C(=O)N[C@@H](CC(C)C)C(=O)N[C@@H](Cc1ccccc1)C(=O)O [Example 93, 1-naphthoyl-amide-MLF] | 11.6 µM | – | – |
| CCCNC(=O)N[C@@H](CCSC)C(=O)N[C@@H](CC(C)C)C(=O)N[C@@H](Cc1ccccc1)C(=O)O [Example 70, N-propylurea-MLF] | 13 µM | – | – |
| CCCC[C@H](NC(=O)OC(C)(C)C)C(=O)N[C@@H](CC(C)C)C(=O)N[C@@H](Cc1ccccc1)C(=O)O [Example 57, tBoc--NleLF] (Boc-[Nle]-Leu-Phe-OH) | 2.5 µM | – | – |
| CSCC[C@H](NC(=O)C1CSC(=O)N1)C(=O)N[C@@H](CC(C)C)C(=O)N[C@@H](Cc1ccccc1)C(=O)O (some centres unmarked) [Example 90, 4-carboxy-2-oxo-thiazolidine-MLF] | > 100 µM | – | – |
| CSCC[C@H](NC(=O)C=Cc1ccccc1)C(=O)N[C@@H](CC(C)C)C(=O)N[C@@H](Cc1ccccc1)C(=O)O [Example 23, N-Cinnamoyl-MLF] | – | – | 0.004 µM |
| CSCC[C@H](NC(=O)NC(C)(C)C)C(=O)N[C@@H](CC(C)C)C(=O)N[C@@H](Cc1ccccc1)C(=O)O [Example 67, t-butylurea-MLF] | 9.4 µM | – | – |
